Data: the supplement of paper PMC11417369
± gives the standard deviation of the averaged measurements. This is one part of the list.

Test system: PfAP2-EXP AP2 domain (GST-tagged)
Assay: gcPBM binding intensity (ln(normalized median fluorescence intensity)); higher = stronger DNA binding
Summary of the method: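 Plasmodium falciparum DNA-binding domains carrying a GST tag were expressed in E. coli and applied for 1 h, at about 25 μg on average, to an Agilent 4 × 180k array. The array held primer-extended double-stranded 36-bp intergenic genomic probes together with negative controls, and binding took place in 1× PBS with 1% milk, 0.2 mg/ml BSA, 0.5% salmon testes DNA and 0.03% Triton X-100. An Alexa488 anti-GST antibody detected bound protein, and the array was scanned at 488 nm. Binding intensity is taken as the highest Masliner-normalised natural-log median intensity across replicate spots of either probe orientation.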

Row | Sequence | gcPBM binding intensity (ln)
1 | CTTGTCATTTGGCACACACACATGTATAGGTTATTA [CACACA_site5656] | 8.71 ± 0.42
2 | TAAAGTTTTTCCTATCTATATTTATATTATAAATGA [XGTACX_negctrl_site20] | 8.11 ± 0.46
3 | GTGAGTGAAATATGCAAACACACACCCGAAAAATGT [CACACA_site3197] | 8.7 ± 0.57
4 | TATAAAGGTATACAAAGTACAAAATACATATATACT [XGTACX_site6431] | 8.42 ± 0.31
5 | TATGATTTTAATGAAACACACAATTTTATGTTAATA [CACACA_site311] | 8.11 ± 0.4
6 | TAATATATGTTATATACACACATATAAATATAAATA [CACACA_site6339] | 8.29 ± 0.42
7 | TGTGTATAAGTCACTTGTACTAGTAGTAAAAAAAAA [XGTACX_site4341] | 8.61 ± 0.42
8 | TGAAGTATAATTTATCTAATATGTTATATTTTATTT [TGCATGCA_negctrl_site56] | 7.76 ± 0.46
9 | CAAATAATATTATGAAGTACTTCAAATTTTGAAAGA [XGTACX_site2530] | 8.52 ± 0.28
10 | TTTAATATTATTATTTTACACACTTTTTTCCTTTTA [CACACA_site8780] | 8.49 ± 0.42
11 | AATATAGGTATATCCACACACATATTTATATTTATA [CACACA_site6867] | 8.52 ± 0.38
12 | TCTTATAAACTCTGCACACATAATATATTAAATGAG [CACACA_site1936] | 8.48 ± 0.35
13 | TTTTTTACAGAAAAATATTAAAATTATAAATGTGAA [GTGCAC_negctrl_site451] | 8.39 ± 0.37
14 | GCCCACACGAACCATGCATGCCACGATATAAACCAC [TGCATGCA_site322] | 9.27 ± 0.46
15 | TATGAAATTTTAATTACACACAGGAAAATAAAATGT [CACACA_site8430] | 8.73 ± 0.35
16 | TAATATATATATATGGTGCATTTAATTTATATATAA | 8.75 ± 0.3
17 | TTATAATATATATAAAAGAAAAAAAATTATAATATA [CACACA_negctrl_site90] | 8.39 ± 0.48
18 | TTATTTTTCTTTATTGGTACACACGAAAAAAAAATT [XGTACX_site6482] | 8.47 ± 0.3
19 | ATATATATTTTTAATTGTACAGAATTAAAAATATTG [XGTACX_site1967] | 8.4 ± 0.36
20 | CTTTAACCATATATGTGTACGTATTTTATTCATATT [XGTACX_site6212] | 9.14 ± 0.3
21 | AAAAAAAAAAAAAGCTGTACAATTAAAGACAAACCT [XGTACX_site8610] | 8.85 ± 0.77
22 | AAGAAGTGGAAAATATACTCCACATATATATATGTG [CACACA_negctrl_site304] | 8.52 ± 0.23
23 | AAAAAACAATTTGTGTGTACACATGATACGTTCGAT [XGTACX_site4112] | 8.88 ± 0.56
24 | TATATAGTAAATATTTGTACATAATAAAATATATGT [XGTACX_site7873] | 8.38 ± 0.29
